A lower IC50 marks a more sensitive line; a fit beyond the top or the lowest dose is shown as a bound at that dose. AUC, from the same fit, is the share of area under the viability curve across the 256-fold dose range; it is 1 without any effect and falls as sensitivity rises. For some assays here: Where the top dose is marked as inferred, it was calculated from the reported fits. For some assays here: Drugs with an entry number were screened twice under separate entries, and the two screens often disagree.
Assays:
Assay in all cases: Viability of human cancer cell lines after 72 h of drug (GDSC screen)
[1] = compound: CC/C(=C(\c1ccccc1)c1ccc(OCCN(C)C)cc1)c1ccccc1 [Tamoxifen]; details: top dose 5 µM
Procedure: (§1)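 Human cancer cell lines in 384-well plates, medium with 10% serum, drug for 72 h over a 256-fold dose range (nine 2-fold or five 4-fold steps up to the top dose). Adherent lines were fixed and stained with the nucleic acid dye Syto60, suspension lines read with resazurin; signal relative to control wells, capped at 0 and 100%. One two-parameter sigmoid per drug and line, fitted in a mixed model over all curves with the slope shared within a line.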

[2] = compound: CCCC(=O)OCc1ccc(OC(=O)/C=C(C)/C=C/C=C(C)/C=C/C2=C(C)CCCC2(C)C)cc1 [VNLG/124]; details: top dose 5.12 µM; top dose inferred
Procedure: as §1

[3] = compound: CN(NC(=O)CC(=O)NN(C)C(=S)c1ccccc1)C(=S)c1ccccc1 [Elesclomol]; details: top dose 0.2 µM; top dose inferred
Procedure: as §1

[4] = compound: Cc1c(N)nc([C@H](CC(N)=O)NC[C@H](N)C(N)=O)nc1C(=O)N[C@H](C(=O)N[C@H](C)[C@@H](O)[C@H](C)C(=O)N[C@H](C(=O)NCCc1nc(-c2nc(C(=O)NCCC[S+](C)C)cs2)cs1)[C@@H](C)O)[C@@H](OC1OC(CO)C(O)C(O)C1OC1OC(CO)C(O)C(OC(N)=O)C1O)c1cnc[nH]1 [Bleomycin]
Procedure: as §1

[5] = compound: Cc1ccc(NC(=O)c2ccc(CN3CCN(C)CC3)cc2)cc1Nc1nc(-c2cccnc2)cs1 [Masitinib]; details: top dose 20 µM
Procedure: as §1

[6] = compound: O=C(/C=C/c1ccc(CN(CCO)CCc2c[nH]c3ccccc23)cc1)NO [LAQ824]; details: top dose 1.024 µM; top dose inferred
Procedure: as §1

[7] = compound: O=C(Nc1ccc(OC(F)(F)F)cc1)c1sccc1NCc1ccnc2ccccc12 [OSI-930]; details: top dose 10.24 µM
Procedure: as §1

[8] = compound: O=C(Nc1cccc(Nc2ncc(Br)c(NCCc3cnc[nH]3)n2)c1)N1CCCC1 [BX-912]; details: top dose 10.24 µM; top dose inferred
Procedure: as §1

[9] = compound: O=S(=O)(O)c1ccc2cc(N=Nc3cc(S(=O)(=O)O)c4cccnc4c3O)ccc2c1 [NSC-87877]; details: top dose 16 µM; top dose inferred
Procedure: as §1

[10] = top dose 50 µM, screen: GDSC drug entry 1378, top dose inferred
[11] = top dose 64 µM, screen: GDSC drug entry 190

Row | Cell Line | AUC [1] | IC50 [1] [µM] | AUC [2] | IC50 [2] [µM] | AUC [3] | IC50 [3] [µM] | AUC [4, 10] | IC50 [4, 10] [µM] | AUC [5] | IC50 [5] [µM] | AUC [6] | IC50 [6] [µM] | AUC [7] | IC50 [7] [µM] | AUC [8] | IC50 [8] [µM] | AUC [9] | IC50 [9] [µM] | AUC [4, 11] | IC50 [4, 11] [µM]
1 | FU97 (stomach, adherent) | 0.957 | > 5 | 0.979 | > 5.12 | 0.878 | > 0.2 | 0.717 | 13.1 | 0.949 | > 20 | 0.381 | 0.0297 | 0.965 | > 10.2 | 0.833 | 6.87 | 0.985 | > 16 |  | 
2 | HuCCT1 (biliary tract, adherent) | 0.918 | > 5 | 0.98 | > 5.12 | 0.395 | 0.00621 | 0.505 | 3.22 | 0.867 | > 20 | 0.373 | 0.0274 | 0.961 | > 10.2 | 0.907 | > 10.2 | 0.983 | > 16 | 0.643 | 10.5
3 | HCC-44 (lung adenocarcinoma, adherent) | 0.98 | > 5 | 0.946 | > 5.12 | 0.605 | 0.0241 | 0.081 | < 0.195 | 0.868 | 17.5 | 0.303 | 0.0182 | 0.967 | > 10.2 | 0.887 | > 10.2 | 0.986 | > 16 | 0.198 | 0.523
4 | KYSE-510 (oesophagus, adherent) | 0.992 | > 5 | 0.99 | > 5.12 | 0.839 | 0.105 | 0.174 | 0.412 | 0.972 | > 20 | 0.37 | 0.0299 | 0.992 | > 10.2 | 0.978 | > 10.2 | 0.892 | 13.3 | 0.377 | 1.95
5 | CESS (acute myeloid leukaemia, suspension) | 0.987 | > 5 | 0.971 | > 5.12 | 0.987 | > 0.2 | 0.441 | 2.21 | 0.681 | 3.68 | 0.298 | 0.0191 | 0.813 | 4.58 | 0.711 | 2.27 | 0.99 | > 16 | 0.025 | < 0.25
6 | RMG-I (ovary, adherent) | 0.979 | > 5 | 0.978 | > 5.12 | 0.937 | > 0.2 | 0.469 | 2.53 | 0.907 | > 20 | 0.645 | 0.173 | 0.96 | > 10.2 | 0.9 | > 10.2 | 0.896 | > 16 | 0.044 | < 0.25
7 | NCI-H1703 (lung adenocarcinoma, adherent) | 0.965 | > 5 | 0.979 | > 5.12 | 0.373 | 0.00516 | 0.513 | 3.41 | 0.659 | 3.82 | 0.649 | 0.182 | 0.685 | 2.38 | 0.677 | 2.24 | 0.96 | > 16 | 0.158 | 0.268
8 | L-540 (Hodgkin lymphoma, suspension) | 0.983 | > 5 | 0.985 | > 5.12 | 0.621 | 0.0259 | 0.551 | 4.24 | 0.885 | 17.7 | 0.455 | 0.0489 | 0.951 | > 10.2 | 0.934 | > 10.2 | 0.99 | > 16 | 0.759 | 20.2
9 | EB2 (Burkitt lymphoma, suspension) | 0.988 | > 5 | 0.954 | > 5.12 | 0.869 | 0.156 | 0.398 | 1.68 | 0.547 | 1.66 | 0.39 | 0.0328 | 0.728 | 2.64 | 0.503 | 0.652 | 0.989 | > 16 | 0.24 | 0.778
10 | LU-135 (small cell lung carcinoma, suspension) | 0.991 | > 5 | 0.967 | > 5.12 | 0.325 | 0.00448 | 0.952 | > 50 | 0.843 | 10.8 | 0.411 | 0.0383 | 0.992 | > 10.2 | 0.907 | 9.89 | 0.986 | > 16 | 0.602 | 7.25
11 | P31-FUJ (acute myeloid leukaemia, suspension) | 0.996 | > 5 | 0.996 | > 5.12 | 0.994 | > 0.2 | 0.974 | > 50 | 0.926 | 18.9 | 0.63 | 0.133 | 0.95 | > 10.2 | 0.978 | > 10.2 | 0.989 | > 16 | 0.984 | > 64
